Changes are numbered by the printed parent chain; changes in the protein carry UniProt numbers. The list shows a part of the results.
T1: RBFOX1 RRM RbFoxmut (Fox-RRM*) (Homo sapiens, UniProt Q9NWB1 109-208, R118D;E147R;N151S;E152T)
T1 sequence: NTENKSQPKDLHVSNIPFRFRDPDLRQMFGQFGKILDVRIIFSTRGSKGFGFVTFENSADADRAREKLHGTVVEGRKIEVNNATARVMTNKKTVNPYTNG

B1: GUUCUCU (DNA:RNA)
RNA: GGGAGACCGGAAUUCAGAUUGUCCGUUCUCUUUAAAUCCCGUCGUAGCCACCA
DNA 1: CAATCTGAATTCCGGTCTCCC
DNA 2: TGGTGGCTACGACGGGATT
B2: AUUUCUU (DNA:RNA)
RNA: B1 RNA with G25A, C28U, U29C, C30U
DNA 1: CAATCTGAATTCCGGTCTCCC
DNA 2: TGGTGGCTACGACGGGATT
B3: AUUUUGA (DNA:RNA)
RNA: B1 RNA with G25A, C28U, C30G, U31A
DNA 1: CAATCTGAATTCCGGTCTCCC
DNA 2: TGGTGGCTACGACGGGATT
B4: CUACCGC (DNA:RNA)
RNA: B1 RNA with G25C, U27A, U29C, C30G, U31C
DNA 1: CAATCTGAATTCCGGTCTCCC
DNA 2: TGGTGGCTACGACGGGATT
B5: UUUGUAU (DNA:RNA)
RNA: B1 RNA with G25U, C28G, C30A
DNA 1: CAATCTGAATTCCGGTCTCCC
DNA 2: TGGTGGCTACGACGGGATT
B6: UUCUGUU (DNA:RNA)
RNA: B1 RNA with G25U, U27C, C28U, U29G, C30U
DNA 1: CAATCTGAATTCCGGTCTCCC
DNA 2: TGGTGGCTACGACGGGATT
B7: GCGUCAU (DNA:RNA)
RNA: B1 RNA with U26C, U27G, C28U, U29C, C30A
DNA 1: CAATCTGAATTCCGGTCTCCC
DNA 2: TGGTGGCTACGACGGGATT
B8: CGCCUUU (DNA:RNA)
RNA: B1 RNA with G25C, U26G, U27C, C30U
DNA 1: CAATCTGAATTCCGGTCTCCC
DNA 2: TGGTGGCTACGACGGGATT
B9: UAUCGCC (DNA:RNA)
RNA: B1 RNA with G25U, U26A, U29G, U31C
DNA 1: CAATCTGAATTCCGGTCTCCC
DNA 2: TGGTGGCTACGACGGGATT

What follows are binders tested against T1, RBFOX1 RRM RbFoxmut (Fox-RRM*) (assay: EMSA; HiTS-Eq, 1 nM pool, 10 min; buffer printed only for the single-RNA assays: 10 mM Tris pH 7.5, 150 mM NaCl, 3.4 mM EDTA, 0.001% NP-40, 30 C). Conditions: tags: His6 N-terminal (pET28a); label: 5' 32P.
How it was run: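 Purified RbFox RRM (wild type or mutant) was equilibrated for 10 min in 50 µL with 1 nM of a 5′-radiolabelled pool of RNA with 7 randomized nucleotides, its flanks annealed to DNA oligonucleotides, across increasing protein concentrations. Free RNA was separated by 8% native PAGE, excised, reverse-transcribed, PCR-barcoded and sequenced on an Illumina HiSeq 2500. Relative association constants came from read-count changes of each variant against the control reaction, normalised to the cognate motif.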
B1 was tested, and the binding signal was 0.0707 KA relative to UGCAUGU.
B2 was tested, and the binding signal was 0.103 KA relative to UGCAUGU.
For B3, the binding signal was 0.0954 KA relative to UGCAUGU.
With B4 the binding signal was 0.108 KA relative to UGCAUGU.
B5 was tested, and the binding signal was 0.156 KA relative to UGCAUGU.
In the case of B6, the binding signal is reported as 0.105 KA relative to UGCAUGU.
With B7 the binding signal was 0.0884 KA relative to UGCAUGU.
With B8 the binding signal was 0.0753 KA relative to UGCAUGU.
For B9, the binding signal was 0.124 KA relative to UGCAUGU.

— PMC9911399, “Two distinct binding modes provide the RNA-binding protein RbFox with extraordinary sequence specificity”
